The supplement of paper PMC3334620
Whole data set: some 33,000 sequences, median “E-score (-0.5 to 0.5)” near -0.043, cut for the highest 2% near 0.37. The list shows a part of the results.

Each sequence was assayed against T1, Upc2 (UniProt Q12151) (assay: PBM E-score (8-mer binding enrichment) (E-score (-0.5 to 0.5)); higher = stronger / more preferred TF binding; most listed sequences are background and not binding sites). Details: protein concentration: 200 nM; construct: GST-full length.
T1 sequence: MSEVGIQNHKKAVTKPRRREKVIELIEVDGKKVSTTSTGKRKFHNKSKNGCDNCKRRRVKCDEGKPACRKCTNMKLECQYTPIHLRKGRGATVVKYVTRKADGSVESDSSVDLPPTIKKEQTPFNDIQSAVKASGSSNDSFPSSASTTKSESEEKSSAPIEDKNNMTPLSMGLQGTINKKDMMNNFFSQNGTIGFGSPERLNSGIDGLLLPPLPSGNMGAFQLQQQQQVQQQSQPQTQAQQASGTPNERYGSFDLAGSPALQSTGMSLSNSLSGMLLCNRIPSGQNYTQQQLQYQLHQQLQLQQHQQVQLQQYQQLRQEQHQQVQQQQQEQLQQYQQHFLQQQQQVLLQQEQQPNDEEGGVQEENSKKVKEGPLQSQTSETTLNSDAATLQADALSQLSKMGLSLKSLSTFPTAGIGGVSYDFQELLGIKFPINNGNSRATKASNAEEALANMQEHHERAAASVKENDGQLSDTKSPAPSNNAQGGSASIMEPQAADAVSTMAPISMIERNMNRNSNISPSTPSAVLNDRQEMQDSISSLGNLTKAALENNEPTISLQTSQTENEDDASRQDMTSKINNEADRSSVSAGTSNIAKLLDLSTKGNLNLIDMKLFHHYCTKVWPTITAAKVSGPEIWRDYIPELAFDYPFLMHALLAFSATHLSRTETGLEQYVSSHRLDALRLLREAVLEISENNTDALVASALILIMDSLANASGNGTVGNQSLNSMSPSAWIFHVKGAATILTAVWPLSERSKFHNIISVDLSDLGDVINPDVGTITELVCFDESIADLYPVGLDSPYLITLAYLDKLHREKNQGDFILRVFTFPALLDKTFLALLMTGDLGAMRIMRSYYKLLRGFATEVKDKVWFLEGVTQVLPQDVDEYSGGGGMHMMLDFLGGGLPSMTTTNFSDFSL
Summary of the method: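 Full-length yeast transcription factors or their DNA-binding domains, GST-tagged and expressed with PURExpress, were applied at about 100-200 nM to universal all-10-mer Agilent arrays. These arrays had been made double-stranded by primer extension on fresh or once-stripped slides. Detection used fluorescent anti-GST, normalisation used masliner, and E-scores for ungapped eight-base words pooled with reverse complements came from the Universal PBM Analysis Suite.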

In order of rising “PBM E-score” value:
1. GCCCCCCA  -0.328
2. AAGTGCCC  -0.317
3. GTTGGCCA  -0.311
4. AGTGGGAG  -0.286
5. CAGGGAGG  -0.282
6. AGACAGCT  -0.258
7. CTGAAACC  -0.252
8. AGATCTAG  -0.249
9. GCGGGTGA  -0.232
10. ACACAAGG  -0.231
11. GCCCAGCC  -0.226
12. CTGCTTTC  -0.222
13. ACCTCATG  -0.22
14. AGTCGCCA  -0.214
15. ATGCTGGC  -0.205
16. AGCAAGAG  -0.203
17. AATAGCCC  -0.202
18. GGCACACC  -0.201
19. AACCCGCT  -0.2
20. AGAGACCA  -0.186
21. CTGTTATC  -0.185
22. ATCATAGC  -0.184
23. AGGGCTGA  -0.184
24. CTAATCTA  -0.181
25. ATGCCCAT  -0.178
26. GATTGGCC  -0.177
27. TAGTTGCA  -0.175
28. CTATGGGA  -0.173
29. ATGCTAAG  -0.173
30. CATTATTC  -0.172
31. AAGACTCA  -0.172
32. ATTTTCCC  -0.172
33. CTGATTGC  -0.17
34. ATGCTGCA  -0.162
35. AACTGCTT  -0.161
36. GCCGCAGC  -0.159
37. TCCTTCCA  -0.158
38. GAACTACC  -0.153
39. AAGAGCCT  -0.152
40. TCCGGCAA  -0.147
41. AACCACCC  -0.147
42. GGGAAGAA  -0.138
43. AAATCGGG  -0.133
44. CGGTAGCA  -0.131
45. CCACGACA  -0.131
46. AAACTTGA  -0.128
47. GCAAAACC  -0.128
48. ACTGCACA  -0.125
49. AAGCATGC  -0.124
50. ATGATACA  -0.122
51. GTCCTAGA  -0.118
52. AAACAGTT  -0.118
53. GCCTCGAC  -0.118
54. AATCACAG  -0.117
55. ACAACCTG  -0.114
56. ATCCCCGG  -0.103
57. AAGTACCT  -0.102
58. CCATACTA  -0.101
59. CTTTGAGC  -0.0943
60. TAACTAGA  -0.0932
61. CGTGCGGC  -0.0925
62. GTGTCCAA  -0.0902
63. ACTGATCC  -0.0846
64. AGCTGTGC  -0.0829
65. GACGATCC  -0.0721
66. AAAACGGT  -0.0721
67. AGAATGTA  -0.0672
68. GCTACAGC  -0.0661
69. ACCTTTCA  -0.0653
70. AAGTAAAT  -0.0653
71. GATACAGC  -0.0649
72. ATTTTGAC  -0.0644
73. CCCGAACA  -0.064
74. AGGGCCGA  -0.0627
75. AGATGGTG  -0.0626
76. TCTTAAGA  -0.0586
77. AGTGTCGC  -0.0581
78. AGAACAGC  -0.0576
79. AAATACTT  -0.0542
80. GGTGGGCA  -0.0535
81. TGACGTCA  -0.0522
82. AGTAGCAT  -0.0507
83. CCGGCGCG  -0.0503
84. AATAATGG  -0.0495
85. ACTTTTCT  -0.047
86. CTCGGAGA  -0.0454
87. AGTTGCAA  -0.0411
88. GAGGATAA  -0.0411
89. CGAAGACC  -0.0395
90. GACTATAA  -0.036
91. ATGGACAC  -0.0352
92. ATACACCA  -0.0351
93. ATAGGTCG  -0.035
94. ATTGGTTA  -0.0342
95. GAGACAGA  -0.0332
96. CTCCAATC  -0.0328
97. CACACAAC  -0.0306
98. ACGGACGC  -0.0287
99. GTCAGATA  -0.028
100. CGTCAACC  -0.0201
101. CGTCCCGA  -0.0164
102. TCTGCAGA  -0.0119
103. ATTGCAGG  -0.0113
104. CAGGATGC  -0.00933
105. CTACCGAC  -0.00404
106. GAAAAGAA  -0.00375
107. ACGCCGGC  -0.00364
108. AAACCATG  -0.00076
109. ATAAACAG  0.00269
110. CAATCACG  0.00382
111. ACGCGGCA  0.00542
112. CAGACACG  0.00983
113. ATAGATAT  0.0103
114. GAACACGC  0.0136
115. GGTAGATA  0.0193
116. AACGTGTG  0.022
117. CCCTAGAA  0.0251
118. GCATATGC  0.0251
119. ACTGAACA  0.0269
120. CAGAAGCG  0.0273
121. GTAATTAC  0.0279
122. ACTGCCGA  0.0329
123. AGCATACT  0.0348
124. ATTGAAAT  0.0382
125. GGCGTAAC  0.0403
126. GGTTGCAA  0.0442
127. TGTAAGAA  0.0482
128. GCCCAACC  0.0505
129. CTTAGGTA  0.0508
130. ACTGAATA  0.0517
131. GGAGAATA  0.0549
132. ATCCTGCG  0.0647
133. ACGCTGGA  0.0743
134. TTTACAAA  0.0763
135. ACCGCGCA  0.0823
136. GATATTTA  0.0883
137. ACGTAAGG  0.091
138. CGGAAATA  0.093
139. ATATCTAA  0.0945
140. CAACGCGA  0.0946
141. CTGCTGAC  0.096
142. CGAAATTC  0.0977
143. CTCTTAAG  0.101
144. CATCGTCG  0.106
145. CAATTACG  0.107
146. ACCGTAGC  0.115
147. ACGCTCAC  0.122
148. ACGCCGCG  0.128
149. CGACTAAG  0.13
150. ACGCGGCG  0.136
151. AAACAAAT  0.136
152. CAGAACGG  0.139
153. ATTTGATA  0.139
154. TACACATA  0.144
155. ATATTGTC  0.147
156. ACGCACTC  0.151
157. GTTTTAAA  0.153
158. GTATTTAA  0.164
159. ATTCGGTC  0.178
160. AGGTAGCG  0.185
161. CGGTTATC  0.187
162. AAACGTCA  0.192
163. CGAGGTAA  0.196
164. CCACTACG  0.223
165. ACGATCAC  0.268
166. TACGCGGA  0.276
167. ACATACGC  0.281
168. ACACGTAT  0.292
169. TCTACGAA  0.335
170. AACGACTA  0.379
171. GAACGAGA  0.457
172. CTCGTACC  0.481
